# Test results taken from the supplement of paper PMC8728848.
# The list shows a part of the results.
# B1: UEA-I (Ulex europaeus), P22972 (protein)
# chain: SDDLSFKFKNFSQNGKDLSFQGDASVIETGVLQLNKVGNNLPDETGGIARYIAPIHIWNCNTGEVASFITSFSFFMETSANPKAATDGLTFFLAPPDSPLRRAGGYFGLFEDTKDNDSSYQTVAVEFDTIGSPVNFDDPGFPHIGIDVNRVKSINAERWNKRYGLNNVANVEIIYEASSKTLTASLTYPSDQTSISVTSIVDLKEILPEWVSVGFSGGTYIGRQATHEVLNWYFTSNLINTNS
# Columns and labels:
# Experiment in all cases: glycan array binding signal (z-score within array); higher = stronger binding
# Conditions in all cases: glycan notation: IUPAC condensed, linker removed
# [1] = target: Fuc(a1-2)[GalNAc(a1-3)]Gal(b1-4)GlcNAc(b1-3)[Fuc(a1-2)[GalNAc(a1-3)]Gal(b1-4)GlcNAc(b1-6)]GalNAc
# Summary of the method: (§1)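 Glycan array binding is given as a within-array Z-score, which can be read as non-binding when negative. The arrays, 3228 of them, came from the Consortium for Functional Glycomics database and were retained only where the protein sequence was available. Z-scores were averaged across arrays of the same protein sequence at different concentrations or buffers and across linkers.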
# [2] = target: Fuc(a1-2)[GalNAc(a1-3)]Gal(b1-4)GlcNAc(b1-6)GalNAc
# Summary of the method: as §1
# [3] = target: Fuc(a1-2)[GalNAc(a1-3)]Gal(b1-4)[Fuc(a1-3)]GlcNAc
# Summary of the method: as §1
# [4] = target: Fuc(a1-2)[GalNAc(a1-3)]Gal(b1-4)[Fuc(a1-3)]GlcNAc(b1-3)GalNAc
# Summary of the method: as §1
# [5] = target: Fuc(a1-2)[GalNAc(a1-4)]Gal(b1-4)GlcNAc
# Summary of the method: as §1
# [6] = target: Fuc(a1-2)[GalNAc(b1-3)]Gal
# Summary of the method: as §1
# Fuc(a1-3)GlcNAc = target: Fuc(a1-3)GlcNAc
# Summary of the method: as §1
# [7] = target: Fuc(a1-3)[Gal(b1-4)]Glc6S
# Summary of the method: as §1
# [8] = target: Fuc(a1-3)[Gal(b1-4)]GlcNAc
# Summary of the method: as §1
# [9] = target: Fuc(a1-3)[Gal(b1-4)]GlcNAc(b1-2)Man
# Summary of the method: as §1
# [10] = target: Fuc(a1-3)[Gal(b1-4)]GlcNAc(b1-2)Man(a1-3)[Fuc(a1-3)[Gal(b1-4)]GlcNAc(b1-2)Man(a1-6)]Man(b1-4)GlcNAc(b1-4)GlcNAc
# Summary of the method: as §1
# [11] = target: Fuc(a1-3)[Gal(b1-4)]GlcNAc(b1-2)Man(a1-3)[Fuc(a1-3)[Gal(b1-4)]GlcNAc(b1-2)Man(a1-6)]Man(b1-4)GlcNAc(b1-4)[Fuc(a1-6)]GlcNAc
# Summary of the method: as §1
# [12] = target: Fuc(a1-3)[Gal(b1-4)]GlcNAc(b1-3)Gal(b1-3)[Fuc(a1-4)]GlcNAc
# Summary of the method: as §1
# [13] = target: Fuc(a1-3)[Gal(b1-4)]GlcNAc(b1-3)Gal(b1-4)[Fuc(a1-3)]GlcNAc
# Summary of the method: as §1
# [14] = target: Fuc(a1-3)[Gal(b1-4)]GlcNAc(b1-3)Gal(b1-4)[Fuc(a1-3)]GlcNAc(b1-3)Gal(b1-4)[Fuc(a1-3)]GlcNAc
# Summary of the method: as §1
# [15] = target: Fuc(a1-3)[Gal(b1-4)]GlcNAc(b1-3)GalNAc
# Summary of the method: as §1
# [16] = target: Fuc(a1-3)[Gal(b1-4)]GlcNAc(b1-4)Gal(b1-4)[Fuc(a1-3)]GlcNAc
# Summary of the method: as §1
# [17] = target: Fuc(a1-3)[Gal(b1-4)]GlcNAc(b1-4)Gal(b1-4)[Fuc(a1-3)]GlcNAc(b1-4)Gal(b1-4)[Fuc(a1-3)]GlcNAc
# Summary of the method: as §1
# [18] = target: Fuc(a1-3)[Gal(b1-4)]GlcNAc(b1-6)GalNAc
# Summary of the method: as §1
# [19] = target: Fuc(a1-3)[Gal(b1-4)]GlcNAc(b1-6)[Gal(b1-3)GlcNAc(b1-3)]Gal(b1-4)Glc
# Summary of the method: as §1
# [20] = target: Fuc(a1-3)[Gal(b1-4)]GlcNAc6S
# Summary of the method: as §1
# [21] = target: Fuc(a1-3)[Gal3S(b1-4)]Glc
# Summary of the method: as §1
# [22] = target: Fuc(a1-3)[Gal3S(b1-4)]Glc6S
# Summary of the method: as §1
# [23] = target: Fuc(a1-3)[Gal3S(b1-4)]GlcNAc
# Summary of the method: as §1
# [24] = target: Fuc(a1-3)[Gal3S(b1-4)]GlcNAc6S
# Summary of the method: as §1
# [25] = target: Fuc(a1-3)[GalNAc(b1-4)]Gal(b1-4)GlcNAc
# Summary of the method: as §1
# [26] = target: Fuc(a1-3)[GalNAc(b1-4)]GlcNAc
# Summary of the method: as §1
# [27] = target: Fuc(a1-3)[GalNAc(b1-4)]GlcNAc6S
# Summary of the method: as §1
# Fuc(a1-4)GlcNAc = target: Fuc(a1-4)GlcNAc
# Summary of the method: as §1
# Fuc(b1-3)GlcNAc = target: Fuc(b1-3)GlcNAc
# Summary of the method: as §1
# Gal(a1-2)Gal = target: Gal(a1-2)Gal
# Summary of the method: as §1
# Gal(a1-3)Gal = target: Gal(a1-3)Gal
# Summary of the method: as §1
# Gal(a1-3)Gal(b1-3)Glc = target: Gal(a1-3)Gal(b1-3)Glc
# Summary of the method: as §1
# Gal(a1-3)Gal(b1-3)GlcNAc = target: Gal(a1-3)Gal(b1-3)GlcNAc
# Summary of the method: as §1
# [28] = target: Gal(a1-3)Gal(b1-3)GlcNAc(b1-2)Man
# Summary of the method: as §1
# [29] = target: Gal(a1-3)Gal(b1-3)GlcNAc(b1-2)Man(a1-3)[Gal(a1-3)Gal(b1-3)GlcNAc(b1-2)Man(a1-6)]Man(b1-4)GlcNAc(b1-4)GlcNAc
# Summary of the method: as §1
# [30] = target: Gal(a1-3)Gal(b1-3)GlcNAc(b1-3)GalNAc
# Summary of the method: as §1
binder,measurement,setting,value
B1,glycan array binding signal (z-score),[1],-0.178
same,glycan array binding signal (z-score),[2],-0.233
same,glycan array binding signal (z-score),[3],-0.164
same,glycan array binding signal (z-score),[4],0.061
same,glycan array binding signal (z-score),[5],5.17
same,glycan array binding signal (z-score),[6],-0.226
same,glycan array binding signal (z-score),Fuc(a1-3)GlcNAc,0.94
same,glycan array binding signal (z-score),[7],-0.109
same,glycan array binding signal (z-score),[8],-0.142
same,glycan array binding signal (z-score),[9],-0.206
same,glycan array binding signal (z-score),[10],-0.178
same,glycan array binding signal (z-score),[11],-0.026
same,glycan array binding signal (z-score),[12],-0.111
same,glycan array binding signal (z-score),[13],-0.193
same,glycan array binding signal (z-score),[14],-0.194
same,glycan array binding signal (z-score),[15],-0.097
same,glycan array binding signal (z-score),[16],-0.197
same,glycan array binding signal (z-score),[17],-0.196
same,glycan array binding signal (z-score),[18],0.149
same,glycan array binding signal (z-score),[19],-0.103
same,glycan array binding signal (z-score),[20],-0.083
same,glycan array binding signal (z-score),[21],-0.137
same,glycan array binding signal (z-score),[22],0.641
same,glycan array binding signal (z-score),[23],-0.141
same,glycan array binding signal (z-score),[24],-0.108
same,glycan array binding signal (z-score),[25],-0.554
same,glycan array binding signal (z-score),[26],-0.159
same,glycan array binding signal (z-score),[27],-0.217
same,glycan array binding signal (z-score),Fuc(a1-4)GlcNAc,0.791
same,glycan array binding signal (z-score),Fuc(b1-3)GlcNAc,-0.212
same,glycan array binding signal (z-score),Gal(a1-2)Gal,-0.226
same,glycan array binding signal (z-score),Gal(a1-3)Gal,-0.198
same,glycan array binding signal (z-score),Gal(a1-3)Gal(b1-3)Glc,-0.406
same,glycan array binding signal (z-score),Gal(a1-3)Gal(b1-3)GlcNAc,-0.211
same,glycan array binding signal (z-score),[28],-0.29
same,glycan array binding signal (z-score),[29],-0.037
same,glycan array binding signal (z-score),[30],-0.241
